According to the supplement of paper PMC12217912:
The list shows a part of the results. The full chains were built here from the parent and the listed change. Inactive controls read about 0.05.

B1: TEV protease; numbered along this chain (parent)
chain: MGESLFKGPRDYNPISSSICHLTNESDGHTTSLYGIGFGPFIITNKHLFRRNNGTLVVQSLHGVFKVKDTTTLQQHLVDGRDMIIIRMPKDFPPFPQKLKFREPQREERICLVTTNFQTKSMSSMVSDTSCTFPSGDGIFWKHWIQTKDGQCGSPLVSTRDGFIVGIHSASNFTNTNNYFTSVPKNFMELLTNQEAQQWVSGWRLNADSVLWGGHKVFMVKPEEPFQPVKEATQL

Variants of: B1
Assay: raw area under fraction-flipped curve 0-4 h after induction (AUC4h, not background-subtracted), DNA-recorder readout of cleavage of the substrate (dimensionless); higher = more cleavage of the substrate by the protease variant
Conditions: temperature: 34 °C; time window: 0-4 h after rhamnose induction
Description: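 In vivo DNA recorder in E. coli TOP10(DE3) ΔrhaA at 34 °C. Each TEVp single-site mutant (parent TEVp 0) is paired with a single-site variant of the 7-mer TEVs (canonical ENLYFQ|S). The substrate sits between flexible linkers in a Bxb1-sfGFP-TEVs-SsrA fusion, so cleavage stabilises Bxb1 and speeds flipping of a recombination array, read by NGS. The value is the raw area under the fraction-flipped curve over 0-4 h after rhamnose induction (AUC4h), with ≥20 reads per time point. It is not background-subtracted; inactive controls average about 0.047.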
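Further: Bxb1 expression induced with 0.2% (w/v) L-rhamnose at OD600 near 0.5, cultures sampled hourly, flipped fraction per protease–substrate barcode pair counted by paired-end Illumina sequencing.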

| Variant | area with substrate ENLAFQS | area with substrate ENLCFQS | area with substrate ENLDFQS | area with substrate ENLFFQS | area with substrate ENLGFQS | area with substrate ENLIFQS | area with substrate ENLKFQS | area with substrate ENLMFQS | area with substrate ENLNFQS | area with substrate ENLPFQS | area with substrate ENLQFQS | area with substrate ENLRFQS | area with substrate ENLWFQS | area with substrate ENLHFQS | area with substrate ENLSFQS | area with substrate ENLVFQS | area with substrate ENLEFQS | area with substrate ENLLFQS | area with substrate ENLTFQS |
| --- | --- | --- | --- | --- | --- | --- | --- | --- | --- | --- | --- | --- | --- | --- | --- | --- | --- | --- | --- |
| R81D | 0.0501 | 0.0651 | 0.0646 | 0.0676 | 0.0675 | 0.0557 | 0.0616 | 0.054 | 0.0508 | 0.0734 | 0.0527 | 0.0672 | 0.0433 |  |  |  |  |  |  |
| D82W | 0.0429 | 0.0649 | 0.0635 | 0.0666 | 0.0473 |  |  |  | 0.0462 | 0.053 |  |  | 0.0553 | 0.0548 | 0.0569 | 0.0735 |  |  |  |
| D82F | 0.0365 | 0.0565 | 0.0584 | 0.0535 |  | 0.0542 | 0.0652 | 0.0659 |  | 0.0747 |  | 0.066 |  | 0.0622 |  |  | 0.0506 |  |  |
| N116E | 0.0729 | 0.0519 | 0.0564 | 0.0778 | 0.0662 | 0.0836 |  | 0.0628 | 0.0636 | 0.0694 | 0.07 | 0.056 | 0.0402 | 0.0678 | 0.0607 |  | 0.055 |  |  |
| G80R | 0.0598 |  | 0.0715 | 0.0581 |  | 0.0729 | 0.0752 | 0.0644 | 0.0766 | 0.0553 |  |  |  | 0.0579 |  |  |  | 0.065 |  |
| M122W | 0.08 |  | 0.0675 | 0.057 | 0.0634 | 0.0791 | 0.0456 |  | 0.0671 | 0.0459 | 0.0633 | 0.0794 | 0.0725 | 0.0697 | 0.0598 | 0.0871 | 0.0569 | 0.0797 | 0.0571 |
| M122L | 0.0633 | 0.0869 | 0.0774 | 0.101 |  | 0.084 | 0.0765 |  | 0.0675 |  |  | 0.069 | 0.06 | 0.11 | 0.0626 | 0.0997 |  |  |  |
| L61D | 0.0727 |  | 0.0592 | 0.084 | 0.0621 |  | 0.078 | 0.0766 |  | 0.0477 | 0.0652 | 0.0718 | 0.0847 | 0.074 | 0.0473 |  | 0.0466 | 0.0523 |  |
| S124D | 0.0645 |  | 0.0612 |  |  | 0.0759 | 0.0835 |  | 0.0573 | 0.0644 | 0.0585 | 0.0656 |  | 0.0706 | 0.0632 | 0.0637 |  | 0.0668 |  |
| F117G | 0.0746 |  | 0.065 |  | 0.0631 | 0.0751 |  |  | 0.0546 | 0.0598 |  | 0.0855 |  | 0.0815 | 0.0673 |  |  |  |  |
| F117K | 0.0688 | 0.0718 |  | 0.0796 | 0.0732 | 0.0746 |  |  | 0.0594 | 0.0663 |  |  |  | 0.0613 | 0.0555 |  |  |  |  |
| L77V | 0.0727 | 0.0557 | 0.0613 | 0.0575 |  | 0.0672 | 0.0616 | 0.0665 | 0.0612 | 0.0439 | 0.0663 | 0.0614 | 0.0609 | 0.0697 | 0.065 | 0.0801 | 0.0716 | 0.0737 |  |
| C111I | 0.0549 |  | 0.0608 | 0.0724 |  |  | 0.0758 |  | 0.068 | 0.0582 |  | 0.0675 | 0.0708 |  | 0.0542 |  | 0.0704 | 0.0487 |  |
| V113T | 0.0639 |  | 0.0673 | 0.0693 |  |  |  |  | 0.0453 |  | 0.0603 |  | 0.0796 | 0.0628 |  | 0.0668 |  |  |  |
| V113A | 0.0549 | 0.0692 | 0.0571 | 0.0854 | 0.0591 |  | 0.08 |  | 0.0607 |  | 0.0854 |  | 0.0636 | 0.0697 | 0.0693 |  | 0.0669 | 0.063 | 0.0613 |
| R109H | 0.0577 |  | 0.0518 | 0.0793 |  | 0.0693 | 0.0893 |  |  | 0.0391 |  |  |  |  | 0.0664 |  | 0.0626 |  |  |
| E103W | 0.0515 |  | 0.0602 | 0.0688 | 0.0439 | 0.0682 | 0.0625 | 0.0638 | 0.0799 | 0.059 | 0.0587 | 0.0694 | 0.0587 | 0.0644 | 0.0573 | 0.0821 | 0.0682 | 0.0687 | 0.0814 |
| T114Q | 0.0628 | 0.0724 | 0.0574 | 0.0924 |  |  | 0.0733 | 0.0788 | 0.0702 | 0.0704 |  | 0.0704 | 0.0687 | 0.0485 | 0.0564 | 0.0841 | 0.0701 | 0.0578 |  |
| H76A | 0.0203 |  | 0.0715 | 0.0801 | 0.089 | 0.0619 | 0.078 | 0.0734 | 0.0705 |  | 0.0797 | 0.0778 |  |  | 0.071 | 0.079 |  | 0.0662 |  |
| H76I | 0.0651 |  | 0.0687 | 0.0716 | 0.0594 |  | 0.0682 | 0.0642 | 0.069 |  | 0.069 |  |  |  | 0.0557 |  |  |  |  |
| F65T | 0.0519 | 0.0911 | 0.0493 | 0.0722 |  |  | 0.071 | 0.0676 | 0.0694 | 0.0581 | 0.0496 | 0.063 | 0.0526 | 0.0621 | 0.0739 | 0.0763 | 0.0512 |  | 0.0533 |
| D69C | 0.0594 | 0.0434 | 0.0703 | 0.0795 |  | 0.0778 |  |  | 0.0579 | 0.0729 | 0.0593 | 0.0597 | 0.0569 |  |  |  | 0.0655 | 0.0661 |  |
| D69I | 0.0617 |  |  | 0.0682 |  | 0.0617 | 0.0634 |  | 0.0664 | 0.0627 | 0.0331 |  | 0.0717 | 0.0587 | 0.0699 |  |  |  |  |
| T115W | 0.0535 |  |  | 0.0926 |  | 0.0769 |  |  | 0.0658 | 0.0581 |  | 0.0981 |  | 0.0467 | 0.0622 | 0.0469 | 0.0622 | 0.0749 |  |
| K90L | 0.0706 | 0.0645 | 0.0725 | 0.0831 |  |  | 0.0749 | 0.0697 | 0.0643 |  |  | 0.0621 |  | 0.116 | 0.0644 | 0.099 | 0.0805 | 0.0665 |  |
| K120Q | 0.0748 |  | 0.0526 | 0.0777 | 0.063 |  | 0.0813 |  |  | 0.0587 | 0.0832 | 0.0748 | 0.031 | 0.0534 |  | 0.0683 | 0.0754 | 0.0729 | 0.0717 |
| E108I | 0.0555 |  | 0.0532 | 0.0654 |  | 0.0734 | 0.0151 | 0.0879 | 0.0624 |  | 0.0396 | 0.0642 | 0.0494 |  | 0.0517 |  | 0.0586 | 0.0534 | 0.0662 |
| Q105A | 0.0768 |  | 0.0603 | 0.116 |  |  | 0.0791 | 0.0496 | 0.064 | 0.0514 | 0.0667 | 0.0749 | 0.0573 | 0.0695 | 0.0532 |  | 0.0587 | 0.0593 |  |
